# Laboratory results published in ChEMBL document CHEMBL1201862, “PubChem BioAssay data set” (2004).
#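 Protocol summary: plate cells (96-well), add compound at 5 concentrations, incubate 48 h, interpolate endpoints linearly. GI50 = concentration required for 50% inhibition of growth.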 Calls of active or inactive are those of the source. No stated cut-off is given here; in the data, active = GI50 up to about 1.1 µM and inactive = higher.
# System: NCI-H322M
# Experiment: NCI tumour cell line growth inhibition, 48 h
row,SMILES,GI50
1,C=CC(=O)NCNC(=O)C=C,inactive: > 100 µM
2,Cc1c(NC(=O)Nc2c(Cl)cccc2Cl)c(=O)n(-c2ccccc2)n1C,inactive: > 100 µM
3,N#Cc1c(Nc2ccccc2)[n+]([O-])c2ccc(Cl)cc2[n+]1[O-],inactive: 33.3 µM
4,CS(=O)(=O)N(CC(=O)O)Cc1ccccc1,inactive: > 100 µM
5,COc1ccc(OC)c2c(/C=C/c3ccc(N(C)C)cc3)ccnc12,inactive: > 10 µM
6,O=S(=O)(O)C(F)(F)C(F)(F)C(F)(F)C(F)(F)F,inactive: > 100 µM
7,Cc1ccc(N2CCN(CCC(=O)O)CC2)cc1,inactive: > 100 µM
8,c1ccc2c(c1)nc1n2sc2nc3ccccc3n21,inactive: > 100 µM
9,COc1ccccc1/C=C\C(=O)C1COCN1 (centres undefined),inactive: 18.3 µM
10,COc1ccc(N2CCN(c3ccc4c(c3)NCC(=O)N4)CC2)cc1,inactive: > 100 µM
11,COC(=O)[C@H](C)NC(=O)[C@H](NS(=O)(=O)c1nc2ccccc2s1)c1ccccc1,inactive: 21.6 µM
12,NC(Cc1ccc2nc3c4ccccc4c(=O)cc-3oc2c1)C(=O)O (centres undefined),inactive: > 100 µM
13,CCOC(=O)C(=O)Nc1ccc(C)cc1C,inactive: > 100 µM
14,COP(=O)(OC)OCN(C)CC/C=C(\C)CC/C=C(\C)CCC=C(C)C,inactive: 14.4 µM
15,N/C(=N\N=C\c1nc2ccccc2o1)c1cnccn1,inactive: > 100 µM
16,CCOC(=O)/C(=C/c1cccc(C#N)c1)N(CC)CC,inactive: > 100 µM
17,[N-]=[N+]=NC(c1cn(C2CC(O)C(CO)O2)c(=O)[nH]c1=O)C(I)I (centres undefined),inactive: > 100 µM
18,Fc1cccc(F)c1C1SCc2nc3cc(Cl)c(Cl)cc3n21 (centres undefined),inactive: > 100 µM
19,COC(=O)c1sc2c(=O)c(C(=O)OC)c(C(=O)OC)sc2c(=O)c1C(=O)OC,inactive: > 100 µM
20,CC1(C)C=C(/C=C2/N(S(=O)(=O)C(F)(F)F)C(/C=C3/N(S(=O)(=O)C(F)(F)F)C(C)(C#N)CC3(C)C)=CC2(C)C)N=C1/C=C1/CC(C)(C)C(=O)N1 (centres undefined),inactive: 13.6 µM
21,CC1C(=O)CC(c2cccs2)N(N=O)C1c1cccs1 (centres undefined),inactive: > 100 µM
22,CC(=O)CC1CCC(=O)/C=C/C(=O)OC(CC(C)=O)CCC(=O)/C=C/C(=O)O1 (centres undefined),inactive: 22.2 µM

row,SMILES,GI50
1,Nc1ccc2nc3ccc(N)cc3[n+](-c3ccccc3)c2c1,inactive: 85.7 µM
2,COC(=O)C1=C(C(=O)OC)SC(=CC#CC=C2SC(C(=O)OC)=C(C(=O)OC)S2)S1,inactive: 9.95 µM
3,CC1=C(O)C(=O)C2C(=O)C1C(C)C2c1ccc(Cl)cc1 (centres undefined),inactive: > 100 µM
4,N=C(CC(=O)NOC(=O)c1ccccc1)NOC(=O)c1ccccc1,inactive: 93.8 µM
5,COc1ccc2nc(NC(=O)C(=O)C(C#N)c3ccc(Cl)c(Cl)c3)sc2c1 (centres undefined),inactive: 42.9 µM
6,O=C1CCCn2c(nc3ccccc32)N1,inactive: > 100 µM
7,Cc1ccc2c(c1)CC1(Cc3cc(C)ccc3C1=O)C2=O,inactive: > 100 µM
8,COc1cc2ccc(C(=O)O)cc2cc1OC,inactive: > 100 µM
9,CC(C)(C)OC(=O)N(CCCCNC(=O)OCc1ccccc1)CCCNC(=O)OCc1ccccc1,inactive: > 100 µM
10,COC1(OC)CC2C=C(S(=O)(=O)c3ccccc3)C1N(Cc1ccccc1)C2=O (centres undefined),inactive: 49.5 µM
11,C=C(NC(=O)C(=C)NC(=O)c1ccc2c(n1)-c1coc(n1)C(=C)NC(=O)C(=C)NC(=O)c1nc(oc1C)C(=C)NC(=O)C(C(C)(C)O)NC(=O)C(=C)NC(=O)c1coc(n1)/C(=C/C)NC(=O)[C@H]([C@@H](C)O)NC(=O)c1csc-2n1)C(N)=O (some centres undefined),inactive: 78.2 µM
12,O=C(Nc1ccccc1)N1CC(CN2CCN(c3ccccc3)CC2)OC1=O (centres undefined),inactive: > 10 µM
13,N#CC1C(=O)Nc2sc(C(=O)c3ccc(Br)cc3)c(N)c2C12CCCCC2 (centres undefined),inactive: 18.9 µM
14,CC(C)(C)OC(=O)NCCC1SC2C=CC1C2 (centres undefined),inactive: > 100 µM
15,CC(=O)O[C@H]1CC[C@@]2(C)C(=CC[C@H]3C4=CC=C(C(C)=O)[C@@]4(C)CCC32)C1 (some centres undefined),inactive: 77.3 µM
16,COc1ccc2c(-c3ccc(OCCN(C)C)cc3)c(Oc3ccc(Cl)cc3)c(=O)oc2c1,inactive: 4.65 µM
17,CN1C(=O)[C@](C)(Cc2ccc(F)cc2)N(C(=O)OC(C)(C)C)[C@@H]1C(C)(C)C,inactive: 72.8 µM
18,COc1c(C(=O)/C(=N/Nc2cccc(Cl)c2)C(C)=O)c(O)c(OC)c2occc12,inactive: > 100 µM
19,C/C(=C/CC[C@](C)(OC1OC(CO)C(O)C(O)C1OC1OC(C)C(O)C(O)C1O)[C@H]1CC[C@]2(C)[C@@H]1CC[C@@H]1[C@@]3(C)CC[C@H](O)C(C)(C)[C@@H]3C[C@H](O)[C@]12C)CO (some centres undefined),inactive: > 100 µM
20,O=C1CC(c2ccccc2)NCN1 (centres undefined),inactive: > 100 µM
21,CONC(C)=O,inactive: > 100 µM
22,C=CCCCCC1CCC2CCC(CCCCC=C)N12 (centres undefined),inactive: 17.3 µM
